The whole screen tested about 150,000 compounds, of which about 6,500 (4.3%) were called active. The inconclusive results got no clear call from the source; some entries with a clear call stand among them for comparison. Calls follow the shape of the dose curve; as a rule, active = well fitted inhibition curve with a large enough effect (not every such curve was filed as active); inconclusive = small, poorly fitted or top-dose-only effect, or another doubt; inactive = no such curve, though single readings can be large or run the other way. Potencies beside an inconclusive call are fits to weak or partial responses and may not hold up.
Each compound was assayed against 15-hydroxyprostaglandin dehydrogenase [NAD(+)] (Homo sapiens) (UniProt P15428) (assay: qHTS Assay for Inhibitors of HPGD (15-Hydroxyprostaglandin Dehydrogenase)). Details: purified HPGD, NADH fluorescence kinetic, PGE2 substrate; activity change, negative = inhibition: hits give low values.
Sequence of UniProt P15428 (P15428 whole entry, looked up): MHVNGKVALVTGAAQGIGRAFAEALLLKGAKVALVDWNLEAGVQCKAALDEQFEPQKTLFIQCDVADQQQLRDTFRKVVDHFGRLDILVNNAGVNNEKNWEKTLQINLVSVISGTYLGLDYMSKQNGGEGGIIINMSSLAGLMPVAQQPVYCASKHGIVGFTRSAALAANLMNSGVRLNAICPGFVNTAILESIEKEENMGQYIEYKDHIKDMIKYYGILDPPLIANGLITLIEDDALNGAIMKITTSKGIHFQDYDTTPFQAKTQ
Procedure, shortened: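 20 nM HPGD preincubated 15 min at room temperature with compound in 50 mM Tris-HCl pH 8, 0.01% Tween 20. Started with 1 mM NAD+ and 30 uM prostaglandin E2; NADH fluorescence (360/450 nm) read 5 times over 30-s intervals, last minus first.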
% is scaled to controls: 0 for no effect and ±100 for the full control effect; potency is read from the fitted curve at half-maximal effect; tags tell the direction and shape of the fitted curve.

Potency, active:
Cc1ccc(-c2nnc(NCc3ccccc3)c3ccccc23)cc1 3.16 µM, O=c1c(C(c2ccc(O)cc2)c2c(O)nc3n(c2=O)CCS3)c(O)nc2n1CCS2 12.6 µM, O=C1NN(c2ccccc2)C(=O)/C1=C\c1cccc(OC(=O)c2cccs2)c1 2.51 µM, S=c1[nH]nc(-c2cc(-c3ccco3)[nH]n2)n1-c1cccc2ccccc12 11.2 µM, COc1ccc(OCC(=O)Nc2ccc(C)cc2)cc1 15.8 µM, CN(C(=O)c1cccc(COc2ccc(Cl)cc2Cl)c1)c1ccccc1 17.8 µM, COc1ccccc1Cn1nnc2c(=O)[nH]c(C3CCN(C(=O)c4ccccc4Cl)CC3)nc21 14.1 µM, O=C(O)c1ccc(N2C(=O)c3cccc(Oc4ccc(Cl)cc4)c3C2=O)cc1 1.41 µM, COCCNC(=O)c1nc2c(nnn2Cc2cc(C)ccc2C)c(=O)[nH]1 0.199 µM, O=C(NCc1ccccc1)C1CCC1 20 µM, CCc1nc2c(nnn2Cc2ccc(F)cc2)c(=O)[nH]1 14.1 µM, CC(C)CC(=O)NCc1ccc(F)cc1 15.8 µM, O=C(NCc1ccco1)c1cc2sccc2n1Cc1ccccc1 15.8 µM, Cc1ccc(-c2nc3ccccc3c(=O)n2NC(=S)N(C)C)cc1 28.2 µM, N#Cc1cc2c(nc1SCc1cccnc1)CCCC2 12.6 µM, O=C(CCCCCNC(=O)c1ccccc1)N/N=C/c1ccc(O)cc1O 28.2 µM, COc1cccc(/C=C2\C(=O)C(=O)c3ccccc32)c1 3.55 µM

Potency, inconclusive:
N#Cc1nc(-c2ccco2)oc1N1CCC(Cc2ccccc2)CC1 28.2 µM [inhibitor, partial curve], CCCCCCCCC[n+]1cccc2c3ccccc3ccc21 31.6 µM [inhibitor, partial curve], Nc1cc(C(=O)O)ccc1Nc1ccccc1 31.6 µM [inhibitor, partial curve], O=C(CC1S/C(=N/N=C/c2c[nH]c3ccccc23)NC1=O)Nc1ccccc1 (stereo not drawn) 31.6 µM [inhibitor, partial curve], O=c1c2cc(N3CCOCC3)ccc2[nH]c(=S)n1Cc1ccco1 31.6 µM [inhibitor, partial curve], CCOC(=O)c1c(-c2ccc(C)cc2)cn2ccccc12 25.1 µM [inhibitor, partial curve], COc1ccc2oc(=O)c(-c3nc(C)cs3)cc2c1 39.8 µM [inhibitor, single point], COc1ccc2cc(C#N)c(SCC(=O)NNC(=O)Cc3ccccc3)nc2c1 25.1 µM [inhibitor, partial curve], Cc1nn(-c2ccccc2)c2sc(C(=O)NNC(=O)COc3ccccc3)cc12 28.2 µM [inhibitor, partial curve], Cc1nc2oc3c(NCc4ccccc4)ncnc3c2c2c1COC(C)(C)C2 25.1 µM [inhibitor, partial curve], Cc1cc(OC(C)C)c2c(-c3ccccc3)cc(=O)oc2c1 20 µM [inhibitor, partial curve], Cc1cc(=O)oc2cc(OCC3CC(c4ccccc4)=NO3)ccc12 (stereo not drawn) 31.6 µM [inhibitor, partial curve], Cc1c(C(=O)Nc2cccc(Cl)c2)c2ccccn2c1CCc1ccncc1 8.91 µM [inhibitor, partial curve], O=C(/C=C/c1ccc2c(c1)OCO2)NCCSCc1c(Cl)cccc1Cl 28.2 µM [inhibitor, partial curve], O=c1cc(N2CCc3ccccc32)[nH]c(=O)n1-c1ccccc1 39.8 µM [inhibitor, partial curve, poor fit], Fc1cccc(-c2cc3nc4c(c(N5CCOCC5)n3n2)CCCC4)c1 35.5 µM [inhibitor, partial curve], CCOC(=O)NC[C@H](Cc1ccc(OCCc2nc(-c3ccccc3)oc2C)cc1)N/C(C)=C\C(=O)c1ccc(C(F)(F)F)cc1 22.4 µM [inhibitor, single point], COc1ccccc1NC(=O)c1csc(-n2nc(C)cc2C(F)(F)F)n1 28.2 µM [inhibitor, partial curve], CC1CCc2c(C(=O)NCc3ccccn3)csc2C1 (stereo not drawn) 22.4 µM [inhibitor, partial curve], CCc1nnc(NC(=O)CSc2nnnn2C)s1 3.16 µM [inhibitor, partial curve], c1csc(Cn2c(-c3cccs3)nc3ccccc32)c1 31.6 µM [inhibitor, partial curve], Oc1c(C(c2ccc(F)cc2)N2CCc3ccccc3C2)sc2ncnn12 (stereo not drawn) 39.8 µM [inhibitor, single point], Cc1ccc(Cn2ccc(-c3cnc(-c4ccccc4)s3)n2)cc1 31.6 µM [inhibitor, partial curve], COc1ccc(CNC(=O)c2sc3nc4c(c(C(F)(F)F)c3c2N)CCC4)cc1OC 28.2 µM [inhibitor, partial curve], CCCCNc1oc(-c2cccs2)nc1S(=O)(=O)c1ccccc1 31.6 µM [inhibitor, single point], CCOC(=O)c1sc(NC(=O)COc2ncnc3ccccc23)c(C(=O)OCC)c1C 25.1 µM [inhibitor, partial curve], c1ccc2c(Nc3ccncc3)nc(-c3ccc4c(c3)OCO4)nc2c1 28.2 µM [inhibitor, partial curve], Cc1cccc(-c2cc3nc(C)cc(NCCCN(C)C)n3n2)c1 39.8 µM [inhibitor, single point], CCOC(=O)N1CCN(c2ncnc3c2cnn3-c2ccc(Cl)cc2)CC1 35.5 µM [inhibitor, partial curve], c1ccc(-n2cnc3cc(NCc4ccncc4)ccc32)cc1 25.1 µM [inhibitor, partial curve], CSCC[C@H](NC(=O)OC(C)(C)C)C(=O)N/N=C/c1cc2ccc(C)cc2nc1Cl 39.8 µM [inhibitor, single point], COc1cc2ccccc2cc1C(=O)OCC(=O)N1CCOCC1 31.6 µM [inhibitor, partial curve], Nc1nc(-c2ccccc2)c(N=Nc2ccc(Cl)cc2)s1 31.6 µM [inhibitor, single point], CCOc1ccc(Nc2cc(=O)oc3ccccc23)cc1 35.5 µM [inhibitor, partial curve], CN(C)CCCNC(=O)c1ccc2[nH]c3ccccc3c2c1 14.1 µM [inhibitor, partial curve], CCOc1ccc(/C=N/OCC(=O)Nc2ccc(OCc3ccccc3)cc2)cc1OC 28.2 µM [inhibitor, partial curve], O=c1c(CCc2ccccc2)nc2cnc(N3CCNCC3)nc2n1Cc1ccc(F)cc1 35.5 µM [inhibitor, partial curve], COc1ccc(CC(=O)Nc2ccc(S(=O)(=O)Nc3cc(C)on3)cc2)cc1 31.6 µM [inhibitor, partial curve], CCOc1ccc(-c2nnc(-c3ccccc3)o2)cc1 12.6 µM [inhibitor, partial curve]

Activity change, negative = inhibition, inactive:
COc1cccc(-c2nc(CS(=O)(=O)CC(=O)Nc3cc(C)ccc3C)c(C)o2)c1 -12.8%, Cc1cccc(C)c1Nc1oc(-c2ccccc2)nc1-c1ccccc1F -1.03%, O=C(COC(=O)c1cccc(S(=O)(=O)N2CCOCC2)c1)Nc1ccc2c(c1)OCO2 -4.87%, O=C(Nc1ccc2c(c1)OCO2)C1CCCCN1S(=O)(=O)c1ccc(F)cc1 (stereo not drawn) -2.24%, CC(=O)c1ccsc1B(O)O -8.49%, Cc1nn(-c2ccccc2)c2sc(C(=O)OCN3C(=O)c4ccccc4C3=O)cc12 -12.4%, CC(C)CN(CC(C)C)c1nnc(NC(=O)Cn2c(=O)oc3ccccc32)s1 -9.61%, c1ccc2c(c1)ccc1ccccc12 -19%, COc1ccc(N2CC(C)Cn3c2nc2c3c(=O)n(CCc3ccccc3)c(=O)n2C)cc1 (stereo not drawn) -21.1%, Cc1onc(-c2c(F)cccc2Cl)c1C(=O)NC(=S)NC1CCS(=O)(=O)C1 (stereo not drawn) 1.14%, CCOC(=O)Cc1csc(NC(=O)c2ccc(S(=O)(=O)N3CCCC3)cc2)n1 -12.6%, CC(C)(C)c1ccc(C2(C)NC(=O)N(CC(=O)c3ccc[nH]3)C2=O)cc1 (stereo not drawn) -0.989%, Cc1cccc2cc(CN(Cc3ccc(F)cc3)Cc3nnnn3C3CCCC3)c(=O)[nH]c12 6.92%, CCOC(=O)CN1C(=O)CN(c2ccc(C)c(C)c2)C1=O -2.09%, CN1CC2([N+](=O)[O-])CC=C(Oc3ccccc3)C([N+](=O)[O-])(C1)C2 (stereo not drawn) -14%, Cc1ccc2c(c1)cc1c(=O)[nH]ncn12 -19.9%, CN(C)S(=O)(=O)c1cccc(NC(=O)COC(=O)c2cc(-c3cccc(Br)c3)nc3ccccc23)c1 -25.1%

Reference: PubChem BioAssay AID894 (National Center for Advancing Translational Sciences (NCATS), 2007)
